# Laboratory results reported in PubChem BioAssay AID504845 (National Center for Advancing Translational Sciences (NCATS), 2011).
# Hit rate of the full screen: of about 390,000 compounds, about 150 (0.038%) were called active. Inconclusive results, whose numbers are uncertain, are shown with a selection of clear calls. The call rests on the fitted dose curve; in most records, active means well fitted inhibition curve with a large enough effect; inconclusive means small, poorly fitted or top-dose-only effect; inactive means no such curve, though single readings can be large or run the other way. Potencies of inconclusive entries are doubtful fits and often do not repeat.
# Target: Regulator of G-protein signaling 4 (Homo sapiens) (UniProt P49798)
# Test: Inhibitors of Regulator of G Protein Signaling (RGS) 4: qHTS; further: nearly all actives have a fitted effect of over 75% in size
# Settings: Transcreener GDP fluorescence polarization, RGS4-accelerated GTP hydrolysis; series mostly up to 114 µM
# Outline: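 MLSMR compounds (23 nl, pin-transferred) preincubated 10 min at room temperature with a 500nM (2x) first reagent, then RGS4 at 900nM (2x) plus Transcreener GDP mix added; fluorescence polarization (620/688 nm) read before and after 90 min at 30 °C.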
# Potency means the concentration at half of the fitted maximal effect; tags describe the fitted curve by direction and shape.
# Sequence of UniProt P49798 (P49798 whole entry, looked up): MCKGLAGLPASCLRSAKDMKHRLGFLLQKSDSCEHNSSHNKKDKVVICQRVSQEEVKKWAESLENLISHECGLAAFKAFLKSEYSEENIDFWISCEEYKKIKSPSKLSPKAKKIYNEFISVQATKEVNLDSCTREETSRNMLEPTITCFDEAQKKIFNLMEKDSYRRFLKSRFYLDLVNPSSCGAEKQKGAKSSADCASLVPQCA
row,Compound,Potency
1,Cc1cc(C)n(-c2nc3ccccc3nc2Nc2ccc(Cl)cc2Cl)n1,inactive
2,COC(=O)c1ccc(N2NC(=O)/C(=C/c3cc(OC)c(OC)c(OC)c3)C2=O)cc1,"inconclusive: 17.8 µM [inhibitor, full curve, poor fit]"
3,C=CCN(CC=C)C(=S)NC(=O)c1ccc([N+](=O)[O-])cc1,inactive
4,O=C(C[n+]1ccccc1)N/N=C/c1cc(Br)ccc1O,inactive
5,Cc1ccc(C(=O)NC(=S)Nc2cccc3c(C)cc(C)nc23)cc1,inactive
6,Cc1ccc(N/C=C/c2onc(C)c2[N+](=O)[O-])cc1,inactive
7,COc1ccc(CNC(=O)CCCn2nc(C)c3sc4ccccc4c3c2=O)cc1OC,"inconclusive: 39.8 µM [inhibitor, full curve, poor fit]"
8,CC(=O)NS(=O)(=O)c1ccc(N=NN2CCCCCC2)cc1,"inconclusive: 79.4 µM [inhibitor, partial curve, poor fit]"
9,COc1ccc(CC(=O)Nc2ccc(-c3nc4cc(C)ccc4o3)c(O)c2)cc1OC,"inconclusive: 89.1 µM [inhibitor, partial curve, poor fit]"
10,Cc1cc(C)c2nc(N3CCC(C(=O)N4CCN(C(=O)c5ccco5)CC4)CC3)sc2c1,inactive
11,CC1CN(C(=O)N2CCC(C(=O)N3CCN(c4ccccc4)CC3)CC2)c2cc(Cl)ccc2O1 (configuration not stated),inactive
12,CCS(=O)(=O)c1ncc(Cl)c(C(=O)Nc2ccc(S(=O)(=O)N3CCC(C)CC3)cc2)n1,"inconclusive: 70.8 µM [inhibitor, partial curve, poor fit]"
13,CSc1cccc(Nc2cc(C(=O)NCCc3ccc(Cl)cc3)c3ccccc3n2)c1,"inconclusive: 79.4 µM [inhibitor, single point]"
14,Cc1ccc(-c2nc3ncccn3c2Nc2ccc3c(c2)OCCO3)o1,"inconclusive: 50.1 µM [inhibitor, partial curve, poor fit]"
15,Cc1ccc(-c2onc3ccc(C(=O)/C=C/N(C)C)cc23)cc1,"inconclusive: 28.2 µM [inhibitor, full curve, poor fit]"
16,CC[C@@H]1/C=C(\C)C[C@H](C)C[C@H](OC)[C@H]2O[C@@](O)(C(=O)C(=O)N3CCCC[C@H]3C(=O)O[C@H](/C(C)=C/[C@@H]3CC[C@@H](O)[C@H](OC)C3)[C@H](C)[C@@H](O)CC1=O)[C@H](C)C[C@@H]2OC,"inconclusive: 0.474 µM [inhibitor, partial curve, poor fit]"
17,COc1cccc(NC(=O)C(Sc2nnc(Nc3ccccc3C)s2)c2ccccc2)c1 (configuration not stated),inactive
18,COC(=O)C1=C(O)/C(=C\c2ccc(CNC(=O)C(=O)Nc3ccc(C)cc3)o2)N=C1C,"inconclusive: 79.4 µM [inhibitor, partial curve, poor fit]"
19,CCn1c(N)c(C(=O)N2CCOCC2)sc1=S,"inconclusive: 50.1 µM [inhibitor, partial curve, poor fit]"
20,CC1(C)CC(Nc2ccc(Nc3ccccc3)cc2)CC(C)(C)N1,"inconclusive: 39.8 µM [inhibitor, partial curve, poor fit]"
21,CC1CC(C)CN(S(=O)(=O)c2ccc(NC(=O)C3CSC4(C)CCC(=O)N34)cc2)C1 (configuration not stated),"inconclusive: 100 µM [inhibitor, partial curve, poor fit]"
22,CSc1nc(Nc2ccc(C)cc2C)cc(-c2ccccc2)n1,inactive
23,Cc1ccc(/C=C2\SC(=S)N(CC3CCCO3)C2=O)o1 (configuration not stated),"inconclusive: 35.5 µM [inhibitor, full curve, poor fit]"

row,Compound,Potency
1,Cc1ccc(C(=O)CCS(=O)(=O)c2ccc(F)cc2)cc1,"inconclusive: 79.4 µM [inhibitor, partial curve, poor fit]"
2,COc1cc(/C=C2\SC(c3ccc(C)cc3)=NC2=O)cc(OC)c1O,"inconclusive: 79.4 µM [inhibitor, partial curve, poor fit]"
3,Cc1oc(-c2ccc(F)cc2)nc1CN(Cc1ccccn1)CC1CCCO1 (configuration not stated),"inconclusive: 39.8 µM [inhibitor, partial curve, poor fit]"
4,Cc1c(NC(=S)NC(=O)c2ccco2)cccc1-c1nc2ncccc2o1,"inconclusive: 50.1 µM [inhibitor, partial curve, poor fit]"
5,CCn1c(SCC(=O)c2ccc(Cl)cc2)nnc1-c1cccs1,"inconclusive: 50.1 µM [inhibitor, partial curve, poor fit]"
6,COc1cccc(NC(=O)NNC(=O)CCc2ccc(O)c(O)c2)c1,"inconclusive: 89.1 µM [inhibitor, single point]"
7,CC(=O)NS(=O)(=O)c1ccc(N=c2ssc3c2-c2cc(C)ccc2NC3(C)C)cc1,inactive
8,CCOc1ccccc1CNC(=O)c1nc(-c2ccc(Cl)cc2)n2c1CCCCC2,inactive
9,COCCSc1ccccc1C(=O)N1CCCC1,inactive
10,CC(C)c1ccc(NC(=S)N(C)CCc2ccccn2)cc1,"inconclusive: 79.4 µM [inhibitor, single point]"
11,COc1ccc(CCC(=O)NCC23CC4CC(CC(C4)C2)C3)cc1,inactive
12,CCN(CC)C(=O)[C@H]1CC(CC(=O)NC(C)(C)C)C(=O)N2CCc3c([nH]c4ccccc34)[C@]12C (some centres not stated),inactive
13,Cc1ccc(C)c2nc3sc(C(=O)N4CCOCC4)c(N)c3cc12,"inconclusive: 89.1 µM [inhibitor, single point]"
14,Nc1nnc(SCC(=O)OCC(=O)NC23CC4CC(CC(C4)C2)C3)s1,"inconclusive: 79.4 µM [inhibitor, partial curve, poor fit]"
15,O=C(CSc1nc(-c2ccccc2)nc2ccc(F)cc12)Nc1ccc(C(=O)O)cc1,"inconclusive: 89.1 µM [inhibitor, single point]"
16,CCOc1ccc(NC(=O)CN(C)C(=O)CCCc2nc3ccccc3c(=O)[nH]2)cc1OCC,inactive
17,Cc1ccc(NC(=O)CSc2ccc(C(N)=O)cc2[N+](=O)[O-])cc1C,"inconclusive: 22.4 µM [inhibitor, full curve, poor fit]"
18,Oc1ccccc1/C=N/c1c(-c2ccco2)nc2ccccn12,"inconclusive: 89.1 µM [inhibitor, single point]"
19,Clc1ccc(-c2nnc3c4ccccc4nc(N4CCOCC4)n23)cc1Cl,inactive
20,O=[N+]([O-])c1ccc(C2=CSC3=NCCN23)cc1,"inconclusive: 79.4 µM [inhibitor, partial curve, poor fit]"
21,Cc1cccc(Nc2ncnc(N)n2)c1,inactive
22,Cc1ccc(NC(=O)CCC(=O)NNS(=O)(=O)c2ccccc2)cc1C,"inconclusive: 56.2 µM [inhibitor, partial curve, poor fit]"
23,CC(C)(C)NC(=O)C(c1c[nH]c2ccccc12)N(C(=O)Cn1nnc(-c2ccc(F)cc2)n1)c1cccc(O)c1 (configuration not stated),"inconclusive: 28.2 µM [inhibitor, full curve, poor fit]"

row,Compound,Potency
1,Cc1ccc(-c2[nH]ncc2/C=N/n2c(C)nc3ccccc3c2=O)cc1,"inconclusive: 50.1 µM [inhibitor, partial curve, poor fit]"
2,CCc1cccc(C)c1NC(=O)CCCn1c(C)c2cnn(-c3ccccc3)c(=O)c2c1C,inactive
3,S=C(Nc1cccc(Cl)c1)Nc1cccc2cnccc12,"inconclusive: 79.4 µM [inhibitor, partial curve, poor fit]"
4,Cc1sc2ncnc(Sc3ccccc3C(=O)Nc3ccc(Br)cc3)c2c1C,"inconclusive: 50.1 µM [inhibitor, partial curve, poor fit]"
5,NC(=O)C1(C(N)=O)OC1c1ccc(Cl)c(Cl)c1 (configuration not stated),inactive
6,CCOc1cc(C(=S)N2CCCC2)ccc1OCC(=O)Nc1c(C)cc(C)cc1C,"inconclusive: 89.1 µM [inhibitor, single point]"
7,COc1cccc(/C=C/C(=O)c2ccc3c(c2)OCO3)c1OC,inactive
8,O=C(CCN1CCN(c2ccccc2F)CC1)Nc1ccc2c(c1)OCO2,inactive
9,O=C(NC(=S)NCCc1ccccc1)c1ccccc1,"inconclusive: 17.8 µM [inhibitor, full curve, poor fit]"
10,CN(C)c1ccc(/C=C/c2ccncc2)cc1,inactive
11,O=C(Nc1cccc(Cl)c1)Nc1cc(S(=O)(=O)N2CCCCC2)ccc1Cl,inactive
12,O=C(CCNC(=O)c1ccco1)Nc1ccc(Cl)cc1,"inconclusive: 79.4 µM [inhibitor, partial curve, poor fit]"
13,Cc1onc(-c2ccccc2Cl)c1C(=O)N1CC(C)OC(C)C1 (configuration not stated),"inconclusive: 50.1 µM [inhibitor, partial curve, poor fit]"
14,O=C(N/N=C/c1ccc(OC2CSC2)cc1)c1ccc(CN2CCOCC2)cc1,"inconclusive: 79.4 µM [inhibitor, partial curve, poor fit]"
15,Cc1occc1-c1nnc(SC(C)C(=O)Nc2ccccc2F)o1 (configuration not stated),inactive
16,Cc1ccc(CNC(=O)CSCc2nc(-c3ccc(Cl)cc3)oc2C)cc1,inactive
17,COc1ccc([C@H]2C(C#N)=C([S-])N[C@](C)(O)[C@@H]2[n+]2ccccc2)cc1,"inconclusive: 44.7 µM [inhibitor, partial curve, poor fit]"
18,O=C(/C=C/c1ccc([N+](=O)[O-])cc1)OCC(=O)N1CCOCC1,inactive
19,O=C(Nc1ccc(F)cc1F)c1cccnc1,"inconclusive: 79.4 µM [inhibitor, partial curve, poor fit]"
20,COc1ccc(OC(C)C(=O)Nc2ccc(F)cc2F)cc1 (configuration not stated),"inconclusive: 44.7 µM [inhibitor, partial curve, poor fit]"
21,COc1cc2c(cc1OC)-c1cc(Nc3ccccc3C)nc(=O)n1CC2,"inconclusive: 56.2 µM [inhibitor, partial curve, poor fit]"
